Test results published in the supplement of paper PMC9446081.
In all, about 39,000 compounds went through this assay and about 220 (0.56%) showed activity. Some of the results follow.

tested on: Escherichia coli K-12 BW25113; test: relative growth (OD600 normalised to plate interquartile mean) (fraction); higher = less growth inhibition, active = 0.2 or less; settings: 50 µM; LB; incubation time: overnight (16-24 h)
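Further: static incubation at 37 °C against the wild-type strain, values averaged over two biological replicates.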

SMILES	relative growth
O=C(C[C@@H]1CC[C@H]2[C@@H](COC[C@@H](O)CN2C(=O)c2ccc(F)cc2)O1)NCCCN1CCOCC1	inactive: 1.01
COCC(=O)Nc1ccc2c(c1)OC[C@H](C)N(C(=O)Cc1cccnc1)C[C@H](C)[C@H](OC)CN(C)C2=O	inactive: 0.994
C[C@H](CO)N1C[C@H](C)[C@@H](CN(C)Cc2ccc(C(F)(F)F)cc2)Oc2ccc(NS(C)(=O)=O)cc2CC1=O	inactive: 0.897
CC(C)NC(=O)[C@@]1(C)c2ccccc2C(=O)N(Cc2cc(C(F)(F)F)cc(C(F)(F)F)c2)[C@H]1c1ccc(CO)cc1	inactive: 0.971
COc1cccc(C(=O)Nc2ccc3c(c2)C(=O)N(C)[C@H]2CC[C@@H](CC(=O)NCCCN4CCOCC4)O[C@@H]2CO3)c1	inactive: 0.989
CNC[C@@H]1Oc2cc(C#CC(C)(C)O)ccc2S(=O)(=O)N([C@H](C)CO)C[C@H]1C	inactive: 1.04
C[C@H]1CCCCO[C@H](CN(C)S(=O)(=O)c2cccs2)[C@@H](C)CN([C@@H](C)CO)C(=O)c2cc(NS(C)(=O)=O)ccc2O1	inactive: 0.989
C=CCOC(=O)[C@@H]1[C@H]2C(=O)O[C@H](c3ccccc3)[C@H](c3ccccc3)N2[C@H](c2ccc(OCCOC(=O)[C@H]3C[C@H]4C(=O)N[C@@H](CCCC[N+](C)(C)C)C(=O)N4[C@H]3c3cccc(OCCO)c3)cc2)[C@@]12C(=O)Nc1ccccc12	inactive: 0.962
Cc1noc(C)c1S(=O)(=O)Nc1ccc2c(c1)C(=O)N([C@@H](C)CO)C[C@H](C)[C@H](CN(C)C(=O)Nc1ccc(F)cc1)OCCCC[C@H](C)O2	inactive: 0.983
COc1ccc(cc1)CN1CC[C@]2(CC1)CN([C@H](CO)c1[nH]c3cc(ccc3c12)OC)C(=O)Nc1ccc(cc1)F	inactive: 0.985
C=CCC[C@H](Cc1ccc(F)cc1)C(=O)OC[C@H](Cc1c[nH]c2ccccc12)NC(=O)[C@@H](CC=C)CC(=O)N(CCO)Cc1ccccc1	inactive: 1.06
C=CC[C@@H](CC(=O)N[C@H](CO)Cc1ccccc1)C(=O)NC[C@H](OC(=O)[C@@H](CC=C)Cc1ccc(F)cc1)c1ccccc1	inactive: 1.04
COCCNC(=O)C[C@@H]1CC[C@@H]2[C@H](COC[C@H](O)CN2S(=O)(=O)c2ccccc2F)O1	inactive: 0.999
C[C@@H]1CCCCO[C@H](CN(C)S(=O)(=O)c2ccc(F)cc2)[C@@H](C)CN([C@@H](C)CO)C(=O)c2cc(NC(=O)Nc3ccc(C(F)(F)F)cc3)ccc2O1	inactive: 0.967
CNC(=O)c1c(I)c(C(=O)NCC(=O)Nc2c(I)c(C(=O)O)c(I)c(C(=O)NCCO)c2I)c(I)c(N(C)C(C)=O)c1I	inactive: 0.982
C[C@@H]1CN([C@H](C)CO)C(=O)c2cc(NC(=O)C3CCCCC3)ccc2O[C@@H](C)CCCCO[C@@H]1CN(C)C(=O)c1ccccc1	inactive: 1.03
COc1ccc(S(=O)(=O)N(C)C[C@@H]2OCCCC[C@H](C)Oc3ccc(NC(=O)Nc4ccc(C(F)(F)F)cc4)cc3C(=O)N([C@H](C)CO)C[C@H]2C)cc1	inactive: 0.99
CN(C)CC(=O)N[C@@H]1C=C[C@H](CC(=O)NCCN2CCCCC2)O[C@@H]1CO	inactive: 0.999
COc1cccc(S(=O)(=O)Nc2ccc3c(c2)[C@H]2C[C@@H](CC(=O)NCC(F)(F)F)O[C@@H](CO)[C@H]2O3)c1	inactive: 1.03
C[C@@H]1CCCCO[C@@H](CN(C)Cc2ccc(C(F)(F)F)cc2)[C@@H](C)CN([C@@H](C)CO)C(=O)c2cc(NC(=O)Nc3ccc(C(F)(F)F)cc3)ccc2O1	inactive: 1.05

SMILES	relative growth
C=CCOC(=O)[C@H]1[C@@H]2C(=O)O[C@@H](c3ccccc3)[C@@H](c3ccccc3)N2[C@@H](c2ccc(OCCOC(=O)NCCCCCC(=O)NO)cc2)[C@@]12C(=O)Nc1ccc(I)cc12	inactive: 0.993
Cc1noc(C)c1NC(=O)N(C)C[C@H]1Oc2ccc(NS(=O)(=O)c3ccccc3)cc2CC(=O)N([C@@H](C)CO)C[C@H]1C	inactive: 1
C[C@H]1CN([C@@H](C)CO)C(=O)c2cc(NS(=O)(=O)c3cn(C)cn3)ccc2O[C@@H]1CN(C)C(=O)Nc1ccc2c(c1)OCO2	inactive: 0.99
CC1=Nc2ccc(Cl)cc2S(=O)(=O)N1	inactive: 1.03
CC(=O)N1[C@@H]2c3cccc(=O)n3C[C@@H]2[C@@H](CO)[C@@H]1C(=O)N1CCc2ccccc2C1	inactive: 1.02
COc1ccc(NC(=O)Nc2cccc3c2O[C@@H](CN(C)Cc2ccc(Oc4ccccc4)cc2)[C@H](C)CN([C@@H](C)CO)C3=O)cc1	inactive: 1.04
NC(C(=O)O)C(O)c1ccc(O)c(O)c1 (centres undefined)	inactive: 0.967
O=S1(=O)CCN(CC2CCCC2)CC1	inactive: 0.99
CCCC(=O)Nc1ccc2c(c1)C(=O)N(C)C[C@@H](OC)[C@H](C)CN(Cc1cc(-c3ccccc3)on1)[C@H](C)CO2	inactive: 1.03
Cc1noc(C)c1NC(=O)N(C)C[C@@H]1Oc2ccc(NS(=O)(=O)c3cn(C)cn3)cc2C(=O)N([C@@H](C)CO)C[C@H]1C	inactive: 0.997
CC(C)NC(=O)N(C)C[C@@H]1Oc2cc(C#Cc3ccc(F)cc3)ccc2S(=O)(=O)N([C@H](C)CO)C[C@H]1C	inactive: 1.02
COc1ccc(S(=O)(=O)N2C[C@@H](O)COC[C@H]3O[C@H](CC(=O)NCCCN4CCOCC4)CC[C@@H]32)cc1	inactive: 0.993
CC(C)CN1C(=O)[C@@]2(Cc3ccccc31)c1ccccc1C(=O)N(Cc1ccccc1Cl)[C@H]2c1ccc(CO)cc1	inactive: 0.997
C[C@@H]1CN([C@H](C)CO)C(=O)c2cccc(NC(=O)c3nc4ccccc4s3)c2O[C@H]1CN(C)Cc1ccc(-c2ccccc2)cc1	inactive: 0.823
C[C@@H]1CN([C@H](C)CO)S(=O)(=O)c2ccc(C#CCN(C)C)cc2O[C@H]1CN(C)S(=O)(=O)c1cccc(F)c1	inactive: 1.01
COc1cc(Nc2ncc(F)c(Nc3ccc4c(n3)N(COP(=O)(O)O)C(=O)C(C)(C)O4)n2)cc(OC)c1OC	inactive: 1.03
O=c1[nH]c(=O)n([C@H]2C[C@H](O)[C@@H](CO)O2)cc1CO	inactive: 1.04
Cc1cccc(S(=O)(=O)N2C[C@H](O)COC[C@H]3O[C@H](CC(=O)NCc4ccncn4)CC[C@@H]32)c1	inactive: 1
C[C@@H]1CN([C@H](C)CO)C(=O)c2cc(NS(=O)(=O)c3cn(C)cn3)ccc2O[C@@H]1CN(C)CC1CCCCC1	inactive: 1.02
C[C@H]1CN([C@@H](C)CO)S(=O)(=O)c2ccc(C#Cc3cccc(F)c3)cc2O[C@@H]1CN(C)S(=O)(=O)c1cn(C)cn1	inactive: 1.01

SMILES	relative growth
N=C1CCCN1Cc1[nH]c(=O)[nH]c(=O)c1Cl	inactive: 0.975
Cc1ccc(NC(=O)N(C)C[C@@H]2OCCCC[C@H](C)Oc3ccc(NC(=O)C4CCCCC4)cc3C(=O)N([C@H](C)CO)C[C@@H]2C)cc1	inactive: 1.01
CN(C)C1CCN(C(=O)c2cnc(-c3noc4cc(-c5ccccc5C(F)(F)F)ccc34)s2)CC1	inactive: 0.985
CCCNC(=O)Nc1ccc2c(c1)OC[C@H](C)N(C(=O)C1CCOCC1)C[C@H](C)[C@@H](OC)CN(C)C2=O	inactive: 0.991
Cc1ccc(S(=O)(=O)Nc2ccc3c(c2)CC(=O)N([C@@H](C)CO)C[C@@H](C)[C@H](CN(C)S(C)(=O)=O)O3)cc1	inactive: 0.979
C[C@@H]1CN([C@@H](C)CO)C(=O)Cc2cc(NS(C)(=O)=O)ccc2O[C@H]1CN(C)Cc1ccc2c(c1)OCO2	inactive: 0.985
C[C@@H]1CN([C@H](C)CO)C(=O)c2cc(NS(=O)(=O)c3cccs3)ccc2O[C@@H](C)CCCCO[C@@H]1CN(C)C(=O)c1ccccc1	inactive: 1.02
CC(C(=O)O)c1ccc(N2Cc3ccccc3C2=O)cc1 (centres undefined)	inactive: 1.1
C[C@@H]1CN([C@@H](C)CO)C(=O)c2cccc(NC(=O)c3ccc(-c4nccs4)cc3)c2O[C@@H]1CN(C)C(=O)Nc1ccc2c(c1)OCO2	inactive: 1.02
COC(=O)CC1C(C)(C)C(=O)C2CC3C4=CC(=O)OC(c5ccoc5)C4(C)CCC3C1(C)C2=O (centres undefined)	inactive: 1.07
O=C(C[C@H]1CC[C@H](NC(=O)CN2CCOCC2)[C@H](CO)O1)NCc1cccc(F)c1	inactive: 1.01
C[C@H]1CN([C@@H](C)CO)S(=O)(=O)c2ccc(Br)cc2O[C@H]1CN(C)S(=O)(=O)c1ccc(F)cc1	inactive: 1.04
C[C@H]1CN([C@@H](C)CO)C(=O)CCCn2cc(nn2)CO[C@@H]1CN(C)S(=O)(=O)c1ccc(Cl)cc1	inactive: 1.01
C=CC[C@H](CC(=O)N(CCO)Cc1ccccc1)C(=O)N[C@H](COC(=O)[C@@H](CC=C)CC(=O)OC(C)(C)C)Cc1c[nH]c2ccccc12	inactive: 1.11
O=C(O)CN(CC(=O)O)Cc1cc2c(-c3ccccc3C(=O)O)c3cc(CN(CC(=O)O)CC(=O)O)c(=O)cc-3oc2cc1O	inactive: 0.995
CO[C@H](CN(C)C(=O)c1ccc2c(c1)OCO2)[C@H](C)CN([C@H](C)CO)S(=O)(=O)c1ccc(C)cc1	inactive: 1.02
COc1ccc(NC(=O)N(C)C[C@H]2Oc3c(NC(=O)c4cnccn4)cccc3C(=O)N([C@H](C)CO)C[C@@H]2C)cc1	inactive: 1
C[C@@H]1CN([C@@H](C)CO)C(=O)c2cc(NC(=O)C3CC3)ccc2O[C@H]1CN(C)C(=O)NC1CCCCC1	inactive: 0.973
C[C@@H]1CCCCO[C@@H](CN(C)C(=O)c2ccccc2)[C@H](C)CN([C@H](C)CO)C(=O)c2cc(NC(=O)c3ccccc3)ccc2O1	inactive: 1.02
